Measurements: PubChem BioAssay AID1346428 (National Center for Advancing Translational Sciences (NCATS), 2018)
Screen size: about 48,000 compounds; about 1,200 (2.5%) were called active. Roughly 2% stayed inconclusive and do not appear here.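 Rule for the calls: active = activation of at least 60% and not above a set upper limit (about 1 call in 100 departs from these limits); inconclusive = activation of 40% to 60%, or above that upper limit; inactive = activation under 40%.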 This is one part of the list.

What follows are molecules tested against Probable G-protein coupled receptor 32 (Homo sapiens) (UniProt O75388) (assay: qHTS for Agonists of Human Resolvin D1 Receptor DRV1). Settings: CHO-K1 GPR32 beta-arrestin PathHunter luminescence, 90 min; at 76.9 µM; active compounds read high; zero percent set by DMSO-only wells.
UniProt O75388, sequence (O75388 whole entry, looked up): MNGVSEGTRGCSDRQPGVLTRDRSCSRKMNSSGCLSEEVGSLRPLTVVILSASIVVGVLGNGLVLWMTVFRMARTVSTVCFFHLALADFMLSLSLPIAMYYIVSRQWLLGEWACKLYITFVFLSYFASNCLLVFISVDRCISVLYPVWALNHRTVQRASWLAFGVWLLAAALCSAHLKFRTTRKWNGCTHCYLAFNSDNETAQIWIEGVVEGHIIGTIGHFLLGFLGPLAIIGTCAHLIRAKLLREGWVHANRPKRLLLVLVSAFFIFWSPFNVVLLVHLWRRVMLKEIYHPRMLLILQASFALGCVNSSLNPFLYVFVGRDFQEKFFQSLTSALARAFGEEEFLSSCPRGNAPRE
Summary of the method: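 CHO-K1 cells stably expressing ProLink-tagged GPR32 and Enzyme Activator-tagged beta-arrestin were seeded at 2,500 cells/well overnight, exposed to compounds for 90 min at 37 °C, then read by beta-Gal complementation chemiluminescence after 1 h detection reagent.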
Note: 0% is about no effect.

activation, active:
O=c1[nH]cnc2nc[nH]c12 82%

activation, inactive:
COc1cccc(CN(Cc2ccco2)c2cnc(S(C)(=O)=O)nc2C(=O)Nc2cccc(Cl)c2C)c1 -15%
CCc1nc2nc(C)cc(Nc3ccc(OC)cc3)n2n1 3.68%
CN(C1CCCCC1)S(=O)(=O)c1ccc2c(c1)c(=O)c(C(=O)NCCc1ccc(Cl)cc1)cn2C -3.24%
Cc1ccc(-c2nnc(Nc3cccc(Cl)c3)c3ccccc23)cc1S(=O)(=O)NCC1CCCO1 (centres undefined) -22.9%
CCS(=O)(=O)N1CCC(C(=O)NCCC(C)C)CC1 -10.2%
CSCCC(NS(=O)(=O)c1ccc2c(c1)oc(=O)n2C)C(=O)NCCc1ccc(C)cc1 (centres undefined) -3.59%
O=S(=O)(NCCSc1nnnn1-c1ccccc1)c1ccc(F)cc1 8.1%
Cc1ccc(-c2onc(C)c2C)cc1S(=O)(=O)NCc1ccco1 1%
COc1cccc(OCCCCn2c(-c3ccc(Cl)cc3)nc3ccccc3c2=O)c1 -11.3%
CCOc1cc(C(=O)Nc2cccc(-c3nc4ccccc4o3)c2)cc(OCC)c1OCC 16.7%
Cc1ccc(S(=O)(=O)c2cnc(SCC(=O)Nc3ccc4c(c3)OCCO4)[nH]c2=O)cc1 28.8%
O=C(c1cccc([N+](=O)[O-])c1)N1c2ncnn2C2(CCCCC2)[C@@H]2CCCC[C@@H]21 -17.9%
CC(=O)Nc1ccc(S(=O)(=O)NC2(C(F)(F)F)NC(=O)N(c3ccc(C)cc3)C2=O)cc1 (centres undefined) -3.69%
Cc1ccc(CNC(=O)c2ccc(CSCc3ccc(Cl)cc3)o2)cc1 -13.5%
CCc1ccccc1NC(=O)CN1C(=O)CCc2cc(S(=O)(=O)N3CCCCC3)ccc21 8.97%
CCCCNS(=O)(=O)c1ccc2nc(NC(=O)c3cccnc3)sc2c1 42.3%
C/C(=C(/OCCOc1ccc(Cl)cc1)c1ccc(Cl)cc1Cl)n1ccnc1 -66%
Cc1ccc(-n2ccnc(NCc3ccccc3)c2=O)cc1C 42.9%
O=C(NCc1cccc(F)c1)C1=Cc2cc(Br)ccc2OC1 4.5%
CCOc1ccccc1C(=O)Nc1c(NC)c2ccccc2oc1=O -8.79%
Cn1c(=O)oc2cc(S(=O)(=O)N3CCCC(C(=O)Nc4ccc(Br)cc4F)C3)ccc21 (centres undefined) -8.96%
O=C(Nc1cc(C(F)(F)F)ccc1Cl)c1cc2nc(-c3ccc4c(c3)OCO4)cc(C(F)(F)F)n2n1 -10.2%
COc1ccc(OCCCn2c(=O)oc3ccc(C)cc32)cc1 -26.3%
COc1ccc(N(CC(=O)NCc2ccc(F)cc2)S(=O)(=O)c2c(C)n[nH]c2C)cc1 4.01%
O=C(CSc1nc2c(oc3ccccc32)c(=O)n1Cc1ccco1)Nc1cccc(Cl)c1 33.6%
Cc1cn(C)c(CC(=O)Nc2cccc(Cl)c2C)c1C(=O)O -3.1%
Cc1cc(C)cc(NC(=O)CN2C(=O)c3ccccc3Sc3ccc(C(=O)N4CCOCC4)cc32)c1 -8%
COc1cc2c(cc1NS(=O)(=O)c1cccc(C#N)c1)n(C)c(=O)n2C 6.99%
Cc1ccc(C)c(Cn2nnc(C(=O)NCc3ccc(Cl)cc3Cl)c2N)c1 -4.7%
CCc1ccc(NC(=O)c2ccc(F)c(S(=O)(=O)N3CCC(C)CC3)c2)cc1 -11.3%
CC1CCN(CC[C@H]2CCCN2S(=O)(=O)c2cccc(O)c2)CC1 1.4%
Cn1nccc1C(=O)NCc1ccc2c(c1)CCN2C(=O)c1ccc(F)cc1 -47.5%
Cc1ccc(C(=O)N2CCC(c3c[nH]c4ccccc34)(c3c[nH]c4ccccc34)CC2)cc1 -20.2%
COc1ccccc1Nc1cc(C(=O)NCCCN(C)c2ccccc2)c2ccccc2n1 -14.1%
COc1cc(Cl)ccc1Nc1ncc(C(=O)N2CCN(c3ccccc3OC)CC2)c2ccccc12 -6.83%
COc1ccc(OC)c(-c2cc(C(=O)Nc3cccc(Cl)c3C)no2)c1 -3.37%
COc1cccc(CNC(=O)c2ccc(Cn3c(SCc4ccccc4)nc4cccnc43)cc2)c1 -17.7%
CCC(=O)N1c2ccc(S(=O)(=O)NCc3cccc(OC)c3)cc2CC1C (centres undefined) 45.4%
Cc1ccc(S(=O)(=O)c2nc(-c3ccco3)oc2SC(C)c2ccccc2)cc1 (centres undefined) -31.6%
O=C(CSc1nc(-c2ccccc2)nc2c1CCCC2)c1ccc(F)cc1 18.8%
Cc1nc2ccccc2n1CC(O)COc1ccc(C(=O)O)cc1 (centres undefined) 30.5%
COc1cc(NC(=O)CCc2c(C)nc3nc(-c4cc(OC)cc(OC)c4)nn3c2C)cc(OC)c1 0.906%
CCCCN(CC)CCNC(=O)c1cc2c(-c3ccc(Cl)cc3)nn(C)c2s1 26.3%
CC1CCCN(S(=O)(=O)c2ccc(NC(=O)c3nc(SC(C)C)ncc3Cl)cc2)C1 (centres undefined) -11.6%
Cc1ccc(NS(=O)(=O)c2ccc(NC(=O)N3CCCC3)cc2)cc1C -1.04%
Cc1ccc(-n2c3nc(=O)n(C)c(=O)c-3cc3c(Cl)cccc32)c(C)c1 -17.2%
CCn1c(C(=O)N2CCC(C(=O)NCCc3ccccc3)CC2)cc2sccc21 -6.53%
CCC(Sc1nnc(-c2ccc(OC)cc2)c(-c2ccc(OC)cc2)n1)C(=O)NC1CCCCC1 (centres undefined) -11.5%
COc1ccccc1/C=C/c1nc(C#N)c(N2CCCCCC2)o1 -13.2%
CCCCN(Cc1ccccc1)C(=O)c1oc(=O)c2ccccc2c1-c1ccc(C)cc1 -2.7%
COc1ccc(-n2nc(C(=O)N3CCN(c4ccccc4OC)CC3)c3c4ccccc4n(C)c3c2=O)cc1 -0.651%
CCOC(=O)c1ccc(NC(=O)C(CC)Sc2nc3ncccc3[nH]2)cc1 (centres undefined) -7.76%
COc1ccc(N2CC(NC(=O)c3ccc(S(=O)(=O)N4CCCC4)cc3)CC2=O)cc1 (centres undefined) -11%
